Laboratory results reported in PubChem BioAssay AID588453 (National Center for Advancing Translational Sciences (NCATS), 2011).
Several values for one entry are separate records, joined by “and”; a condition that tells them apart may be missing. Equal entries are not always repeated. Among all 390,000 compounds or so, about 4,000 (1%) were called active. This list was built around the results that the source calls inconclusive (neither active nor inactive); the mix of calls is not that of the screen. Calls come from the whole dose curve; as a rule, active = well fitted inhibition curve with a large enough effect; inconclusive = small, poorly fitted or top-dose-only effect; inactive = no such curve, though single readings can be large or run the other way. Potencies of inconclusive entries are doubtful fits and often do not repeat.

Each compound was assayed against Thioredoxin reductase 1, cytoplasmic (Rattus norvegicus) (UniProt O89049) (assay: qHTS Assay for Inhibitors of Mammalian Selenoprotein Thioredoxin Reductase 1 (TrxR1): qHTS). Conditions: recombinant rTrxR1, NADPH fluorescence consumption, selenite substrate; series mostly up to 114 µM.
Chain of UniProt O89049 (O89049 whole entry, looked up): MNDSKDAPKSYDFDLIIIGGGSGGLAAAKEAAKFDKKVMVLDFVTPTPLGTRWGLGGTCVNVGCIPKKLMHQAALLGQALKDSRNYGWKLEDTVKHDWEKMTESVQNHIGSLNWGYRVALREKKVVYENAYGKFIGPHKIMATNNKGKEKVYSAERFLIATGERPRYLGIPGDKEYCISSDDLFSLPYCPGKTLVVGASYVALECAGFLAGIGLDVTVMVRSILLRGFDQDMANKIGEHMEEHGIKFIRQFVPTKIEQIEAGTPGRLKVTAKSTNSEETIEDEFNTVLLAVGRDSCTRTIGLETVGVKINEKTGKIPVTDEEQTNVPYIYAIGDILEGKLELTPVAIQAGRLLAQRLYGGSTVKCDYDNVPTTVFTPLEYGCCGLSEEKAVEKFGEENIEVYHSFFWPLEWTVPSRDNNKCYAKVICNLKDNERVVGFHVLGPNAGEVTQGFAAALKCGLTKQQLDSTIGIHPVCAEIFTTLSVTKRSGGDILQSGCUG
Procedure, shortened: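 Rat TrxR1 (90 nM in the dispensed reagent) was pre-reduced with 400 uM NADPH for 5 min at room temperature, then incubated with compound for 15 min. After 400 uM selenite was added, NADPH fluorescence (Ex 340/Em 450 nm) was followed for 8 min.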
% is set by controls: 0 for no effect and ±100 for the full control effect; potency is the fitted concentration of half-maximal effect; tags give direction and shape of the fitted curve.
Note: nearly all actives have a fitted effect of over 65% in size.

Row | SMILES | Potency | activity change, negative = inhibition
1 | O=C(Nc1ccc(F)cc1)c1nc[nH]c1C(=O)O | inactive | –
2 | CCC(=O)Nc1ccc(NC(=S)NC(=O)/C=C/c2ccco2)cc1 | inconclusive: 56.2 µM [inhibitor, partial curve, poor fit] | –
3 | COc1cc(/C=C2\CCc3ccccc3C2=O)cc(OC)c1OC | inconclusive: 70.8 µM [inhibitor, single point] | –
4 | Fc1ccc(NC(=S)Nc2cccc3ccccc23)cc1 | inactive | –
5 | CCOCCCNC(=O)/C(C#N)=C/c1ccc(Cl)c([N+](=O)[O-])c1 | inconclusive: 12.6 µM [inhibitor, partial curve, poor fit] | –
6 | C=CCn1c(=O)c2ccccc2n2c(=S)[nH]nc12 | inconclusive: 0.708 µM [inhibitor, full curve, poor fit] | –
7 | O=c1c(C(c2ccc(Cl)cc2)c2c(O)nc3n(c2=O)CCCS3)c(O)nc2n1CCCS2 | inconclusive: 7.08 µM [inhibitor, partial curve] | –
8 | COc1ccc(N=C2SC(C(=O)Nc3ccc(OC)cc3)CC(=O)N2CCN2CCOCC2)cc1 (stereo unspecified) | inconclusive: 79.4 µM [inhibitor, partial curve] | –
9 | CC(C)(C)c1ccc(C(=O)NC(=S)Nc2ccc(N3CCOCC3)cc2)cc1 | inconclusive: 10 µM [inhibitor, full curve] | –
10 | Nc1nn(-c2ccccc2)nc1C(=O)OCc1c(F)cccc1Cl | inactive | –
11 | FC(F)(F)c1nnc2sc(-c3ccccn3)nn12 | inactive | –
12 | Cc1ccccc1NC(=O)COC(=O)c1ccc(S(C)(=O)=O)c([N+](=O)[O-])c1 | active: 2 µM and active: 2.51 µM | –
13 | COc1cccc(CSc2nc3ccncc3[nH]2)c1 | inconclusive: 89.1 µM [inhibitor, single point] | –
14 | Nc1c(S(=O)(=O)O)cc(Nc2ccc(Nc3nc(Cl)nc(Nc4ccc(S(=O)(=O)O)cc4)n3)c(S(=O)(=O)O)c2)c2c1C(=O)c1ccccc1C2=O | inconclusive: 100 µM [inhibitor, single point] and inconclusive: 2.12 µM [inhibitor, partial curve, poor fit] and inconclusive: 29.9 µM [inhibitor, partial curve] | –
15 | O=C(NCC1CCCO1)c1ccc(COc2ccc(Br)cc2)cc1 (stereo unspecified) | inconclusive: 22.4 µM [inhibitor, single point] | –
16 | CCOC(=O)c1ccc(N2C(=O)CC(N3CCCC(C)C3)C2=O)cc1 (stereo unspecified) | inconclusive: 15.8 µM [inhibitor, partial curve, poor fit] | –
17 | Cc1ccc(C(=O)Nc2sc3c(c2C(=O)O)CCCCC3)o1 | inactive | –
18 | CN(C)c1ccc(N=Nc2ccc(/C=C/c3ccnc4ccccc34)cc2)cc1 | inconclusive: 89.1 µM [inhibitor, single point] | –
19 | O=C(NCc1ccccn1)C1CCC(=O)N(Cc2ccc(Cl)cc2)C1 (stereo unspecified) | inconclusive: 89.1 µM [inhibitor, single point] | –
20 | CCCCn1c(SCC(=O)NC(=O)NCc2ccco2)nc2cc(S(N)(=O)=O)ccc21 | inconclusive: 50.1 µM [inhibitor, partial curve] | –
21 | Nc1ncnc2nc(-c3ccc(N4CCOCC4)nc3)cc(-c3cccc(Br)c3)c12 | inconclusive: 23.8 µM [inhibitor, single point] | –

Row | SMILES | Potency | activity change, negative = inhibition
22 | CCCc1[nH]nc2c1C(c1ccc(OC)cc1OC)C(C#N)=C(N)O2 (stereo unspecified) | inconclusive: 31.6 µM [inhibitor, partial curve, poor fit] | –
23 | O=C1c2cccnc2C(=O)N1Cc1ccc(S(=O)(=O)NCc2ccco2)s1 | inconclusive: 89.1 µM [inhibitor, single point] | –
24 | COc1ccc(Nc2nc(Nc3ccc(OC)cc3OC)nc(N3CCOCC3)n2)c(OC)c1 | inactive | –
25 | COc1cccc(/C(O)=C2/C(=O)C(=O)N(CCN(C)C)C2c2ccccn2)c1 (stereo unspecified) | inconclusive: 31.6 µM [inhibitor, partial curve, poor fit] | –
26 | CCOc1cc(/C=C2\SC(=S)N(N3CCOCC3)C2=O)ccc1O | inactive | –
27 | C[n+]1ccc(/C=C/c2ccc(F)cc2)c2ccccc21 | inconclusive: 35.5 µM [inhibitor, partial curve] | –
28 | CCOc1ccc(/C(O)=C2/C(=O)C(=O)N(CCN(CC)CC)C2c2cccs2)cc1 (stereo unspecified) | inconclusive: 20 µM [inhibitor, full curve] | –
29 | Cc1oc(-c2ccc(Cl)cc2)nc1CN1CCCC(C(=O)NCCc2ccccc2)C1 (stereo unspecified) | inactive | –
30 | COc1ccc(C(=O)NC(=S)Nc2cccc3cc(O)ccc23)cc1OC | inconclusive: 25.1 µM [inhibitor, partial curve] | –
31 | O=C(NCCO)/C(=C\c1ccco1)NC(=O)c1ccco1 | inconclusive: 39.8 µM [inhibitor, partial curve] | –
32 | CC(=O)c1ccc(NS(=O)(=O)c2cccc(C(=O)Nc3ccccc3C(=O)O)c2)cc1 | inactive | –
33 | Cc1cc(-c2ccccc2)c(C#N)c(=S)[nH]1 | inconclusive: 1.41 µM [inhibitor, full curve] | –
34 | COC1CCN(C(=O)CC2C(=O)NCCN2CC(C)(C)C)CC1 (stereo unspecified) | inconclusive: 31.6 µM [inhibitor, full curve, poor fit] | –
35 | O=C(c1cc(-c2ccc(Cl)c(Cl)c2)on1)N1CCOCC1 | – | inactive: 13.7% [at 0.457 µM]
36 | COCCCn1c(SCC(=O)n2c(C)c(C)c3ccccc32)nnc1-c1ccoc1C | inconclusive: 79.4 µM [inhibitor, single point] | –
37 | O=C(CCC1COc2ccccc2O1)NCc1ccco1 (stereo unspecified) | inconclusive: 28.2 µM [inhibitor, single point] | –
38 | O=C(NCCO)c1ccc2[nH]c3ccccc3c2c1 | inactive | –
39 | Cc1cc(OC(C)C(=O)NC(Cc2c[nH]c3ccc(O)cc23)C(=O)O)c2c(C)c(C)c(=O)oc2c1 (stereo unspecified) | active: 11.2 µM | –
40 | COC(=O)c1cc(CSc2ncnc3sccc23)oc1C | inconclusive: 11.2 µM [inhibitor, partial curve] | –
41 | O=C1c2cccnc2C(Nc2ccccc2)N1Cc1ccco1 (stereo unspecified) | inconclusive: 44.7 µM [inhibitor, partial curve] | –
